The source of these data is the supplement of paper PMC3334620.

Whole data set: some 33,000 sequences, median “E-score (-0.5 to 0.5)” near -0.011, cut for the highest 2% near 0.28. The list shows a part of the results.

The target of the assay is T1, Gcr1 (UniProt P07261).
T1 sequence: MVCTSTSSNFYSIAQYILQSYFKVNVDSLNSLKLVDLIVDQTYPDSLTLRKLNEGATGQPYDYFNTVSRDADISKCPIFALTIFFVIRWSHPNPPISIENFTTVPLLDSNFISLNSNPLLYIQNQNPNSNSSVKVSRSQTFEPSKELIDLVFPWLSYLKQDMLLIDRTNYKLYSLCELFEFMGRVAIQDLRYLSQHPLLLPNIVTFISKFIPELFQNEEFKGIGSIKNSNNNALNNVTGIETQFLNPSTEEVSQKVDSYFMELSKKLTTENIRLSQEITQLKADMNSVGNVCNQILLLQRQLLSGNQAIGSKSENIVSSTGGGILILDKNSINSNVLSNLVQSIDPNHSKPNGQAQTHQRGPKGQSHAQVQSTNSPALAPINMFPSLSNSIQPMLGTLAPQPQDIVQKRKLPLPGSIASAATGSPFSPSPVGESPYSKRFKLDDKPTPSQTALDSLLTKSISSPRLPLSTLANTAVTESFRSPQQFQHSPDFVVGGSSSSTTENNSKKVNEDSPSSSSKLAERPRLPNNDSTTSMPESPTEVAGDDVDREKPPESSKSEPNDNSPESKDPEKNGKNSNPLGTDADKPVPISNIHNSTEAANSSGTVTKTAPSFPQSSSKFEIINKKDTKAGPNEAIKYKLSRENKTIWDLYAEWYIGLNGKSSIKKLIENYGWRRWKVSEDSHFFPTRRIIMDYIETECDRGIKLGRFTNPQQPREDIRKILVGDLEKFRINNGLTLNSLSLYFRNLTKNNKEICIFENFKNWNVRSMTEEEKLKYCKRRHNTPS
Kind of assay: PBM E-score (8-mer binding enrichment) (E-score (-0.5 to 0.5)); higher = stronger / more preferred TF binding; most listed sequences are background and not binding sites. The following applies: protein concentration: 100 nM; construct: GST-full length. In short, it runs like this: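 GST-tagged yeast TFs (full-length or DNA-binding domain) were made by PURExpress in vitro transcription/translation and applied at about 100-200 nM to universal all-10-mer Agilent arrays. The arrays were made double-stranded by primer extension, on fresh or once-stripped slides. Bound protein was detected with fluorescent anti-GST, and scans were normalised with masliner. Each ungapped eight-base word, pooled with its reverse complement, received an E-score (modified Wilcoxon-Mann-Whitney statistic) from the Universal PBM Analysis Suite.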
Turning to GAAGTTCC, the “PBM E-score” value was determined as 0.0578.
For GTACTCCA, the “PBM E-score” value was found to be 0.032.
As for GAATTCTA, the figure is 0.148.
For GCGACAAC, the “PBM E-score” value was determined as 0.0221.
For the sequence AAGTAACC, the “PBM E-score” value was -0.0184.
In the case of CTGAACCC, the “PBM E-score” value was -0.0928.
As for CCAACGAA, the figure is 0.0869; as for ACGTCCGG, -0.0342.
For the sequence AGCATCAA, the “PBM E-score” value stood at 0.0409.
Regarding AACGTCAT, the “PBM E-score” value is -0.00568.
Regarding AGTTAGGC, the “PBM E-score” value turned out to be 0.0125.
On to AGTCCCGA, for which the “PBM E-score” value is -0.15.
As for CTCGCTGC, the figure is 0.0762; as for GCGCCTCC, 0.104.
The figure for TAACTCCA is -0.151.
Regarding CTAGCCGA, the “PBM E-score” value is -0.0683.
Regarding CTTATGGC, the “PBM E-score” value came to 0.0336.
On to GTCCAACA, for which the “PBM E-score” value is 0.103.
On to AAGACCGT, for which the “PBM E-score” value was -0.177.
The figure for ACGCTGAA is 0.0619; for GGGCTTTA it is -0.058; for CACTTGTC it is -0.115.
Consider GCCAGGCC, for which the “PBM E-score” value is -0.324.
With AACTCAAC, the “PBM E-score” value was found to be 0.114.
Regarding GTCATCAA, the “PBM E-score” value worked out at 0.074.
In the case of GCGTAGTA, the “PBM E-score” value is -0.0497.
On to AATAGCAC, for which the “PBM E-score” value was 0.0185.
CAAATGAC: the “PBM E-score” value came to 0.242.
For CTGGCACA, the “PBM E-score” value is -0.0796.
As for ATTTTCGC, the figure is 0.00527; as for ACCTAAGG, -0.0254.
As to ATGGGATG, the “PBM E-score” value came to 0.0554.
For the sequence TCTACAGA, the “PBM E-score” value is -0.176.
Turning to ATGAGCGA, the “PBM E-score” value is -0.0523.
As for AGCAAACG, the “PBM E-score” value was -0.144.
For the sequence ATTTAACC, the “PBM E-score” value is 0.0266.
For GTTTAGCA, the “PBM E-score” value was -0.18.
On to GGTTCGGA, for which the “PBM E-score” value came to 0.0134.
With CACGTTGA, the “PBM E-score” value stood at 0.0217.
Turning to GACCCGGC, the “PBM E-score” value was determined as 0.0182.
Regarding GCGGCACA, the “PBM E-score” value was -0.177.
Turning to AAGCGAGA, the “PBM E-score” value came out at 0.0585.
For ACCTCGGA, the “PBM E-score” value was -0.132.
Turning to CCAAGAGA, the “PBM E-score” value was -0.151.
The figure for CTCCGGGA is 0.00075.
The figure for AGATGCGA is 0.135; for CCGACAAG it is 0.0334.
Regarding ATATGTGA, the “PBM E-score” value was found to be 0.0163.
As for CCCTCTCC, the figure is -0.179; as for CCAGTGGA, 0.0326; as for CGTTTTGA, -0.0332.
For AGTTGAAA, the “PBM E-score” value is 0.167.
With CATCTGCG, the “PBM E-score” value amounted to 0.136.
As for ATAACTGA, the figure is 0.0854; as for TGGCACAA, -0.0481.
In the case of GTTGAAAC, the “PBM E-score” value was -0.149.
In the case of TACCTAAA, the “PBM E-score” value was 0.0795.
On to GGGCGGAC, for which the “PBM E-score” value is -0.0774.
As to CTGTGCGC, the “PBM E-score” value was found to be 0.0563.
Regarding ATAGTAGG, the “PBM E-score” value amounted to 0.051.
As for AGGTTCAA, the “PBM E-score” value was -0.25.
The figure for CTTCACAC is -0.239; for CGAGATTA it is 0.0479.
As for AAGAAGCC, the figure is 0.401; as for TCGTGGAA, 0.158.
As for CCATTAAC, the “PBM E-score” value was found to be 0.128.
With AGACTCTC, the “PBM E-score” value is -0.0599.
Turning to GAGTAATA, the “PBM E-score” value amounted to 0.153.
Consider ACATTACT, for which the “PBM E-score” value is -0.118.
On to AGTTTACG, for which the “PBM E-score” value amounted to 0.0614.
Turning to AGTCTTAT, the “PBM E-score” value is -0.187.
As for GTTGGTTA, the “PBM E-score” value is -0.0488.
Turning to CCTAGCAG, the “PBM E-score” value was -0.131.
Consider CTACGCAA, for which the “PBM E-score” value is -0.134.
As to AGGCCATA, the “PBM E-score” value was -0.192.
ACTTAGTG: the “PBM E-score” value stood at 0.143.
As for ATCGATAC, the figure is 0.114.
Take AGGATAAC: the “PBM E-score” value is -0.061.
On to CCATCGAC, for which the “PBM E-score” value is -0.155.
In the case of ATGGTAAC, the “PBM E-score” value is -0.0277.
Take TAGAAAAA: the “PBM E-score” value came to 0.0205.
For GAACGTCC, the “PBM E-score” value was -0.0379.
The figure for AACTATGA is -0.137.
Turning to AGCCACGA, the “PBM E-score” value stood at 0.0571.
As for CACCTGGG, the “PBM E-score” value was 0.0554.
Regarding AGTGATGG, the “PBM E-score” value is -0.0125.
